Test results reported in US20020150582A1, “Method of treating or inhibiting cellular injury or cell death” (priority 2001, published 2002).

Tested on: isolated feline ventricular myocytes
Experiment: Action potential recording in isolated ventricular myocytes (patch clamp)
Assay type: cell-based, cat
Conditions: n=4
Procedure: The latter process was performed three times.
Patch-clamp current and voltage recordings were made with the ruptured patch whole-cell configuration at 36-37° C. (14). For studies on L-type Ca^2+ currents, cells were bathed with modified Tyrode's containing (in mM): 157 TEA-Cl, 5 CaCl2, 0.5 MgCl2, and 10 HEPES. Electrode internal solution contained (in mM): 10 L-Glutamic Acid, 20 CsCl, 10 EGTA, 1 MgCl2, 1 CaCl2, 20 HEPES, and 5 ATP-Mg2; pH adjusted with CsOH. In all of the studies, electrode resistance was measured to be 2-3.5 MΩ. The reference zero potential was adjusted in the bath before forming seals. Recordings were performed with an Axon Instruments 200B amplifier (Axon Instruments, Culver City, Calif. USA) interfacing a DigiData 1200 DA/AD acquisition system. Ionic currents were evoked by depolarizing voltage step (1 sec-long) from −30 to +60 mV, in 10-mV increments, from a holding potential of −40 mV delivered at the frequency of 1 Hz. Action potentials were elicited at a frequency of 1 Hz by injection of brief depolarizing current pulses. Software used in data acquisition and analysis was pClamp v.6.04 and Origin v 5.0 (Microcal Software, Northampton, Mass.).

CCCCCCCCCCCCC/C=C/[C@@H](O)[C@@H](N)CO [Sphingosine]
reduction of duration at 95% of full repolarization (APD95) (0.25 μM): 16±2% | reduction of duration at 95% of full repolarization (APD95) (2.5 μM): 28±2% | reduction of duration at 95% of full repolarization (APD95) (25 μM): 39±2%
